Structures can show the parent of a compound that is named as a salt. ± gives the standard deviation of the averaged measurements. This is one part of the list.

Holding throughout (conditions): priming compound concentration 100 µM
Experiment [1] deals with hAMSC donor 1. Nature of the experiment: Hoechst total cell count ratio vs vehicle control; higher = more cells (less toxicity).
The test system of experiment [2] is hAMSC donor 2. The experiment is described as above.
Experiment [3] relates to hAMSC donor 1. The experiment can be described thus: transgenic luciferase activity (RLU/mg protein) fold change vs vehicle control (ratio); higher = more transgene expression.
Experiment [4] has as its system hAMSC donor 2. The description is as above.
The subject of experiment [5] is hAMSC donor 1. Nature of the experiment: transfection efficiency (EGFP+ cells / Hoechst count) fold change vs vehicle control (ratio); hAMSC are human adipose-derived mesenchymal stem cells given an EGFP-luciferase plasmid by lipofection; higher = enhanced transfection.
Experiment [6] relates to hAMSC donor 2. The description is as above.
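For Hoechst total cell count ratio vs vehicle control in this document: compound added 30 min before Lipofectamine 3000 lipoplex delivery, triplicate-well means expressed against DMSO vehicle control wells of the same 96-well plate.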
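For transfection efficiency (EGFP+ cells / Hoechst count) fold change vs vehicle control in this document: compounds added 30 min before Lipofectamine 3000 lipoplex transfection, triplicate means relative to DMSO vehicle wells on the same plate, luciferase RLU normalized to BCA total protein.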
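For transgenic luciferase activity (RLU/mg protein) fold change vs vehicle control in this document: compounds in DMSO added 30 min before Lipofectamine 3000 transfection of pEGFP-Luc in 96-well plates, values are means of triplicate wells over DMSO vehicle wells on the same plate.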

In the case of `CCN1CCC[C@H]1CNC(=O)c1cc(S(N)(=O)=O)ccc1OC` [Levosulpiride], the figures for the “Hoechst total cell count ratio” value with hAMSC donor 1 [1] and in the experiment on hAMSC donor 2 [2] were 1.08 ± 0.067 and 0.859 ± 0.022, respectively. Further, the transgenic luciferase activity worked out at 1.82 ± 0.58 with hAMSC donor 1 [3] and 2.1 ± 0.23 in the experiment on hAMSC donor 2 [4]. Besides, the transfection efficiency with hAMSC donor 1 [5] amounted to 0.677 ± 0.17; in the experiment with hAMSC donor 2 [6], 1.75 ± 0.34.
Consider `CC(=O)SCC(Cc1ccccc1)C(=O)NCC(=O)OCc1ccccc1` (stereo unspecified) [Racecadotril], for which the “Hoechst total cell count ratio” value with hAMSC donor 1 [1] worked out at 1.12 ± 0.13; in the experiment on hAMSC donor 2 [2] it was 1.84 ± 0.52. The transgenic luciferase activity in the experiment on hAMSC donor 1 [3] amounted to 0.507 ± 0.22; in the experiment with hAMSC donor 2 [4], 0.725 ± 0.49. In addition, the transfection efficiency with hAMSC donor 1 [5] worked out at 0.609 ± 0.18; in the experiment on hAMSC donor 2 [6] it was 0.836 ± 0.35.
Turning to `COc1c(N2CCNC(C)C2)c(F)cc2c(=O)c(C(=O)O)cn(C3CC3)c12` (stereo unspecified) [Gatifloxacin], the “Hoechst total cell count ratio” value worked out at 1.2 ± 0.086 with hAMSC donor 1 [1] and 1.56 ± 0.13 in the experiment with hAMSC donor 2 [2]. Further, the values for the transgenic luciferase activity in the experiment on hAMSC donor 1 [3] and in the experiment with hAMSC donor 2 [4] were 2.09 ± 0.19 and 0.996 ± 0.25, respectively. The transfection efficiency in the experiment on hAMSC donor 1 [5] turned out to be 1.2 ± 0.42; in the experiment with hAMSC donor 2 [6], 0.734 ± 0.09.
Regarding `Nc1ncn([C@@H]2O[C@H](CO)[C@@H](O)[C@H]2O)c(=O)n1` [5-Azacytidine], the “Hoechst total cell count ratio” value stood at 1.08 ± 0.1 in the experiment on hAMSC donor 1 [1] and 0.862 ± 0.061 with hAMSC donor 2 [2]. The transgenic luciferase activity with hAMSC donor 1 [3] came to 1.44 ± 0.5; with hAMSC donor 2 [4], 1.05 ± 0.18. The transfection efficiency in the experiment on hAMSC donor 1 [5] turned out to be 0.68 ± 0.054; in the experiment with hAMSC donor 2 [6], 1.52 ± 0.35.
Consider `COc1ccnc(C[S+]([O-])c2nc3cc(OC(F)F)ccc3[nH]2)c1OC` (stereo unspecified) [Pantoprazole sodium], for which the “Hoechst total cell count ratio” value with hAMSC donor 1 [1] was 1.48 ± 0.23; in the experiment with hAMSC donor 2 [2], 1.56 ± 0.23. The results for the transgenic luciferase activity in the experiment with hAMSC donor 1 [3] and in the experiment on hAMSC donor 2 [4] were 0.801 ± 0.57 and 0.78 ± 0.12, respectively. The transfection efficiency in the experiment with hAMSC donor 1 [5] was determined as 0.808 ± 0.36; in the experiment on hAMSC donor 2 [6], 0.689 ± 0.17.
With `CCCCNc1cc(C(=O)O)cc(S(N)(=O)=O)c1Oc1ccccc1` [Bumetanide], the “Hoechst total cell count ratio” value in the experiment with hAMSC donor 1 [1] came to 1.12 ± 0.074; in the experiment on hAMSC donor 2 [2], 1.23 ± 0.08. In addition, the transgenic luciferase activity in the experiment with hAMSC donor 1 [3] is 2.99 ± 1.6; in the experiment with hAMSC donor 2 [4] it was 0.847 ± 0.072. The figures for the transfection efficiency in the experiment on hAMSC donor 1 [5] and with hAMSC donor 2 [6] were 1.05 ± 0.51 and 1.07 ± 0.36, respectively.
Turning to `COc1ccc(C(=O)NCc2ccc(OCCN(C)C)cc2)cc1OC` [Itopride hydrochloride], the “Hoechst total cell count ratio” value with hAMSC donor 1 [1] came out at 1.88 ± 0.4; with hAMSC donor 2 [2] it was 1.02 ± 0.083. Moreover, the transgenic luciferase activity in the experiment with hAMSC donor 1 [3] was 0.935 ± 0.24; in the experiment on hAMSC donor 2 [4] it was 0.836 ± 0.042. For the same compound, the transfection efficiency is 0.975 ± 0.16 in the experiment with hAMSC donor 1 [5] and 1.19 ± 0.19 with hAMSC donor 2 [6].
Regarding `CN(C)C(=O)C(CCN1CCC(O)(c2ccc(Cl)cc2)CC1)(c1ccccc1)c1ccccc1` [Loperamide hydrochloride], the “Hoechst total cell count ratio” value in the experiment on hAMSC donor 1 [1] turned out to be 0.121 ± 0.018; in the experiment on hAMSC donor 2 [2] it was 0.025 ± 0.018. In addition, the transgenic luciferase activity with hAMSC donor 1 [3] worked out at 0.0374 ± 0.025; with hAMSC donor 2 [4], 0.0661 ± 0.055. Also, the transfection efficiency in the experiment on hAMSC donor 1 [5] came out at 0.845 ± 0.73; in the experiment on hAMSC donor 2 [6] it was 0.155 ± 0.27.
As to `CN1CCN(CC/C=C2/c3ccccc3Sc3ccc(S(=O)(=O)N(C)C)cc32)CC1` [Thiothixene], the “Hoechst total cell count ratio” value came to 0.085 ± 0.057 in the experiment with hAMSC donor 1 [1] and 0.156 ± 0.089 in the experiment with hAMSC donor 2 [2]. For the same compound, the transgenic luciferase activity with hAMSC donor 1 [3] worked out at 0.00946 ± 0.0066; in the experiment on hAMSC donor 2 [4], 0.00058 ± 6.1e-05. Moreover, the results for the transfection efficiency with hAMSC donor 1 [5] and in the experiment with hAMSC donor 2 [6] were 0.355 ± 0.35 and 0.0803 ± 0.044, respectively.
On to `NC(=O)OCC(COC(N)=O)c1ccccc1` [Felbamate], for which the figures for the “Hoechst total cell count ratio” value in the experiment with hAMSC donor 1 [1] and in the experiment with hAMSC donor 2 [2] were 1.24 ± 0.072 and 1.1 ± 0.26, respectively. The transgenic luciferase activity in the experiment on hAMSC donor 1 [3] was 0.812 ± 0.39; in the experiment with hAMSC donor 2 [4] it was 0.729 ± 0.065. The values for the transfection efficiency in the experiment with hAMSC donor 1 [5] and in the experiment with hAMSC donor 2 [6] were 0.813 ± 0.14 and 0.895 ± 0.14, respectively.
Take `Cc1ccc(S(=O)(=O)NC(=O)NN2CCCCCC2)cc1` [Tolazamide]: the figures for the “Hoechst total cell count ratio” value with hAMSC donor 1 [1] and with hAMSC donor 2 [2] were 1.58 ± 0.15 and 1.14 ± 0.076, respectively. Moreover, the transgenic luciferase activity turned out to be 0.791 ± 0.22 in the experiment on hAMSC donor 1 [3] and 1.19 ± 0.26 in the experiment with hAMSC donor 2 [4]. Moreover, the transfection efficiency came out at 1.2 ± 0.17 in the experiment on hAMSC donor 1 [5] and 1.05 ± 0.19 with hAMSC donor 2 [6].

Values taken from the supplement of paper PMC7238544.
